Measurements: PubChem BioAssay AID485294 (National Center for Advancing Translational Sciences (NCATS), 2010)
About 150 (0.041%) of roughly 370,000 compounds were called active. Inconclusive means that the source gave no clear call. Such entries were picked first, then a sample of the others. The call rests on the fitted dose curve; in most records, active means well fitted inhibition curve with a large enough effect; inconclusive means small, poorly fitted or top-dose-only effect; inactive means flat fitted curve, though single readings scatter. Potencies of inconclusive entries are left out as doubtful fits.

target: Beta-lactamase (Escherichia coli (strain K12)) (UniProt P00811); assay: qHTS Inhibitors of AmpC Beta-Lactamase (assay with detergent); details: AmpC hydrolysis of nitrocefin, absorbance 480 nm, 0.01% Triton; series mostly up to 114 µM; further: nearly all actives have a fitted effect of over 25% in size
In short: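 20 mM phosphate pH 7.0 + 0.01% (detergent screen) or 0.0001% Triton X-100; 5.3 nM AmpC reagent; cpd preinc 15 min RT; nitrocefin (800 uM stock) to start; A480 q20 s × 4 min; Activity was normalised to no-enzyme and no-compound control wells.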
Potency means the concentration at half of the fitted maximal effect; tags describe the fitted curve by direction and shape.

Chain of UniProt P00811 (P00811 whole entry, looked up): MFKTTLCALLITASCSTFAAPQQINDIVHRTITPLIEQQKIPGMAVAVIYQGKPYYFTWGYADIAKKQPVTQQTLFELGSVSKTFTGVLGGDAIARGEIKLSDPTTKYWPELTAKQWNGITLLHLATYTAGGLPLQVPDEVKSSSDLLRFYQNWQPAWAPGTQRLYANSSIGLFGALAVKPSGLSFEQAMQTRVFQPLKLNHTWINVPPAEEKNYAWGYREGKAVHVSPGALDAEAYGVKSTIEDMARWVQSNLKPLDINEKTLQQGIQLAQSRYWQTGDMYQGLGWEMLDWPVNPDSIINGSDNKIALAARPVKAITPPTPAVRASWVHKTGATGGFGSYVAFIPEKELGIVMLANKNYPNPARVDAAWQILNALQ

Structure (SMILES) | Potency
COc1ccc(CN2CCCN(CC(=O)Nc3ccc(Br)cc3F)S2(=O)=O)cc1 | inactive
Cc1ccc(C2C(C(=O)c3cccs3)=C(O)C(=O)N2CCN2CCOCC2)o1 (stereo not drawn) | inconclusive [inhibitor, full curve]
Cc1nn(-c2ccccc2)c2sc(C(=O)OCn3nnc4ccccc4c3=O)cc12 | inconclusive [inhibitor, full curve, poor fit]
CC(C)Oc1ccc(C(=O)Nc2c3c(nn2-c2ccccc2)CS(=O)(=O)C3)cc1 | inconclusive [inhibitor, partial curve]
C/C=C/c1ccc(OC(C)=O)c(OC)c1 | inconclusive [inhibitor, full curve, poor fit]
CCOC(=O)c1c(C)[nH]c(C)c1S(=O)(=O)N(C)CC(=O)Nc1cccc(Cl)c1C | inactive
CCC(CC)C(=O)Nc1cccc(-c2nc3ncccn3c2C)c1 | inactive
COc1ccc(C(=O)NCC(=O)OCC(=O)N2CCc3ccccc32)cc1 | inconclusive [inhibitor, full curve, poor fit]
Cc1c(NC(=O)c2ccc3ncccc3c2)c(=O)n(-c2ccccc2)n1C | inconclusive [inhibitor, full curve]
Clc1ccccc1OCc1nn2c(-c3ccncc3)nnc2s1 | inconclusive [inhibitor, full curve]
CCCC(=O)n1nc(-c2ccco2)nc1N | inconclusive [inhibitor, single point]
Cc1c(C)c2cccnc2c2ncccc12 | inactive
CC(OC(=O)CCCN1C(=O)c2ccccc2C1=O)C(=O)Nc1ncc(Cl)cc1Cl (stereo not drawn) | inconclusive [inhibitor, partial curve, poor fit]
O=C(NCCN1C(=O)S/C(=C\c2ccc(Cl)c([N+](=O)[O-])c2)C1=O)C1=COCCO1 | inconclusive [inhibitor, partial curve]
O=C1c2ccccc2C(=O)N1OS(=O)(=O)c1ccc(F)cc1 | active: 44.7 µM
CCOC(=O)[C@H]1[C@H]2COc3ccc(Br)cc3[C@@H]2N2C(=O)CN(Cc3ccc(OC)cc3)C(=O)[C@@]12C | inactive
CSCCC(NS(=O)(=O)c1ccc2c(c1)oc(=O)n2C)C(=O)NC1CCCCC1 (stereo not drawn) | inconclusive [inhibitor, partial curve]
CCC(=NCc1ccco1)c1c(C(F)(F)F)[nH]n(-c2nc3ccccc3s2)c1=O | inactive
CC(C)NC(=O)c1ccc(CS(=O)(=O)c2ccc(Br)cc2)o1 | inconclusive [inhibitor, full curve, poor fit]
COc1cccc(-c2nn(C)c3sc(C(=O)NCc4ccc(C)cc4)cc23)c1 | inconclusive [inhibitor, partial curve, poor fit]
O=C(NCCCNC(=O)c1cccs1)c1cccs1 | inconclusive [inhibitor, full curve, poor fit]
CCCC(=O)Nc1ccc(C(=O)NNC(=S)NC(=O)c2ccc(Br)o2)cc1 | inconclusive [inhibitor, full curve, poor fit]
CCNC(=S)Nc1ccc(N2CCCCC2)cc1 | inactive

Structure (SMILES) | Potency
CCCCOC(=O)C1CN(c2ccccc2)N=C1C(=O)OCC (stereo not drawn) | inconclusive [inhibitor, full curve, poor fit]
COc1cccc(-c2nnc(NC(=O)c3ccc(S(=O)(=O)N4CC(C)OC(C)C4)cc3)o2)c1 (stereo not drawn) | inactive
Cc1ccc(C2=NN=C(NC(=O)CSc3nnc4c5ccccc5n(C)c4n3)SC2)cc1 | inconclusive [inhibitor, full curve, poor fit]
CC(C)(C)OC(=O)NCCCCCC(=O)N/N=C/c1coc2ccccc2c1=O | inconclusive [inhibitor, full curve, poor fit]
O=C(NCc1nc2ccccc2[nH]1)c1ccc(Cl)c(S(=O)(=O)N2CCCC2)c1 | inconclusive [inhibitor, full curve, poor fit]
CCOC(=O)CSc1nc2c(c(=O)n1-c1ccc(OC)cc1)SCC2 | inconclusive [inhibitor, full curve]
COc1cc(-c2nc3n(n2)C(c2ccc(F)cc2)C2=C(CCCC2=O)N3)cc(OC)c1OC (stereo not drawn) | inactive
O=C(CN(c1ccccc1)S(=O)(=O)c1ccccc1)Nc1ccccc1C(=O)NCc1ccco1 | inactive
CCCN(CCC)C(=O)Cn1c2ccccc2c2nc(=O)cc(C)n21 | inconclusive [inhibitor, partial curve, poor fit]
COc1ccccc1N1CCN(C(=O)CSc2nnc3c4ccccc4nc(Cc4ccccc4)n23)CC1 | inconclusive [inhibitor, partial curve]
COc1ccc(C(CNC(=O)c2ccc(Cl)c(NC(=O)c3cccs3)c2)N2CCCC2)cc1 (stereo not drawn) | inactive
COc1cc(/C=N\NC(=O)c2ccc(Cn3nc([N+](=O)[O-])c(Cl)c3C)o2)ccc1O | inactive
CC(=O)Nc1ccc2c(c1)nc(C)n2Cc1ccccc1 | inconclusive [inhibitor, full curve, poor fit]
Cc1ccccc1OCC(=O)Nc1ccc([N+](=O)[O-])cc1 | inconclusive [inhibitor, full curve, poor fit]
CCN1/C(=C/c2ccc3cc(C)ccc3[n+]2C)Sc2ccc3sccc3c21 | inactive
Cc1ccccc1NS(=O)(=O)c1ccc(C)c(NS(C)(=O)=O)c1C | inconclusive [inhibitor, full curve]
Cc1ccc(N2C(=O)c3n[nH]c(C)c3C2c2ccco2)cc1 (stereo not drawn) | inconclusive [inhibitor, partial curve, poor fit]
Cc1cccc(-c2noc(CCC(=O)Nc3ccccc3)n2)c1 | inconclusive [inhibitor, partial curve]
COc1ccc(NC(=O)c2cc3ccc(O)cc3o/c2=N\O)cc1 | inconclusive [inhibitor, full curve, poor fit]
COc1cc(NC(=O)Cn2nc(C(F)(F)F)c3c2CCCC3)cc(OC)c1OC | inactive
O=C(CSc1nnnn1Cc1ccccc1)Nc1ccccc1 | inconclusive [inhibitor, full curve, poor fit]
COc1ccc(-c2cc3nc(C)cc(NCCO)n3n2)cc1 | inactive
CCOC(=O)/C=C1\CN(Cc2cc(OC)c(OC)c(OC)c2)S(=O)(=O)c2ccccc21 | inactive

Structure (SMILES) | Potency
O=C(Cc1cccs1)NCc1ccc(F)cc1 | inconclusive [inhibitor, single point]
CCN(C(=O)COC(=O)CNS(=O)(=O)c1ccccc1)c1ccccc1 | inconclusive [inhibitor, partial curve, poor fit]
CC1=C(C(=O)Nc2cccc(Cl)c2)C2(CCCCCC2)OC1=O | inactive
CCOc1ccccc1Nc1nc2ccccc2n1C(C)C | inconclusive [inhibitor, full curve, poor fit]
CCc1nnc(NS(=O)(=O)c2ccc(NCc3cc(Br)ccc3O)cc2)s1 | inactive
COc1ccc(/C=C2\SC(N3CCc4ccccc4C3)=NC2=O)cc1OC | inconclusive [inhibitor, single point]
COc1cccc(C(=O)Nc2nc(-c3ccccc3)c(-c3ccccc3)o2)c1 | inconclusive [inhibitor, full curve, poor fit]
CCN1CCc2c(sc(NC(=O)Cc3ccccc3)c2C(N)=O)C1 | inconclusive [inhibitor, partial curve, poor fit]
CCN(/C=N/c1sc2c(c1C#N)CCCCC2)CC | inconclusive [inhibitor, partial curve]
CC(=O)O[C@H]1[C@H](C)OC=C[C@@H]1OC(C)=O | inconclusive [inhibitor, partial curve, poor fit]
COc1ccc(C)cc1S(=O)(=O)Nc1cccnc1 | inactive
CCSc1nnc(NC(=O)Cc2ccc(OC)c(OC)c2)s1 | inconclusive [inhibitor, full curve, poor fit]
O=c1c2oc3ccccc3c2ncn1Cc1ccccc1F | inactive
CC(=O)Nc1cccc(C(=O)OCC(=O)Nc2nnc(-c3ccccc3)o2)c1 | inconclusive [inhibitor, full curve, poor fit]
COc1ccc(N2CCN(c3oc(-c4ccccc4C)nc3S(=O)(=O)c3ccccc3)CC2)cc1 | inactive
COc1cccc(CN(C)C(=O)c2ccc3nccnc3c2)c1 | inconclusive [inhibitor, partial curve, poor fit]
O=C(c1cc(S(=O)(=O)N2CCOCC2)ccc1Cl)N1CCC(Cc2ccccc2)CC1 | inconclusive [inhibitor, full curve, poor fit]
COc1cccc(C(=O)NCC(c2ccc(N(C)C)cc2)N2CCc3ccccc32)c1OC (stereo not drawn) | inactive
COC(=O)c1cc(S(=O)(=O)Nc2cccc(-c3cnco3)c2)oc1C | inconclusive [inhibitor, full curve]
c1ccc(-c2cnnc(SCc3cn4cccnc4n3)n2)cc1 | inconclusive [inhibitor, full curve, poor fit]
Clc1ccc(CSc2nnc(-c3ccncc3)o2)cc1 | inconclusive [inhibitor, full curve]
Cc1nn(CC(=O)c2cccc(Cl)c2)c(C)c1[N+](=O)[O-] | inactive
